Test results published in the supplement of paper PMC10126150.
Sequences with one replicate were seen in a single cluster, so their values are uncertain.

System: ATP
Experiment: switch fluorescence ratio, 500 uM ATP over buffer (Cy3 cluster intensity, sum of 5 cycles each) (fold (ratio)); higher = stronger signal-on switching upon ATP binding; sequences stand for … in TCGTCGGCAGCGTCAGATGTGTATAAGAGACAGTTTTTTTTTTTTTTTTTTTTTTTTT…TC
Details: aptamer strand: ATP DNA aptamer (quencher-CACCTGGGGGAGTATTGCGGAGGAAGG + anchor), 100 nM annealed; ATP concentration: 500 uM; one replicate
In short: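 Exposure to 500 uM ATP lasted 15 min at 22 °C before imaging, and a selection-buffer image was taken beforehand, for Cy3-labelled switching-strand clusters on a modified Illumina MiSeq flow-cell annealed to 100 nM quencher-labelled ATP aptamer. Five buffer/ATP cycles were run with NaOH stripping and re-annealing between them. The fluorescence ratio per cluster is summed target-cycle over summed buffer-cycle Cy3 intensity, averaged per switch-domain sequence. Clusters outside 100-1000 RFU were excluded.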

Sequence	switch fluorescence ratio
TTCAAGAGAT	0.995
ACTATACTTA	1.24
GAACTATTTT	1.02
ATCAGAATGG	0.999
TCAGAGTCGT	1.02
GGCCGGCAAT	1.1
TCTTGAGACC	1.01
GAGAACGCAT	1.31
GCTAAAGAGT	1.01
GCCGCACGA	1.7
TTGCTCTTCG	1.02
TGTCAGTACT	1.04
CAGGTGGTCT	1.03
GCTGCAAAGC	1.09
CTACCTACTA	1.28
TATCCTTAGA	0.992
GTGCTAAGGC	1.03
ACAGGGGGAT	1.07
AATTGCTTTG	0.984
ATTGAGACAT	1.02
GTCGCCAAGC	1.02
TGGGTTCGT	0.997
AGTTTGCAAA	0.992
CCTCTTATAA	1.78
CAGAAAGG	1.02
CGTTTGTTT	0.996

Sequence	switch fluorescence ratio
GTTCTTATCT	0.987
TTGAAAACCA	1.06
CACATCAGTC	1.03
ACGTATTTCG	1
GGGCGAAATC	1.84
CTGTATATTA	1.04
TTTGTCCGTT	1.04
CCGTTATGAG	1.05
CCGGTGATGC	1.86
TTTGGAGAAC	1.02
ATAACTGGCG	1.05
TCCGTTAGTG	1.01
GCCGTCTGGA	1.03
ACTGCGCTCA	1.64
ATGGTATTAA	1.05
ACTGTGTGGA	1.03
GCATGTGATG	1.03
ACTGTGGCGG	1.03
ACGATACCTA	1.36
TCTGAGGTAA	1.55
GTGGGTATGC	1.02
CAGGGCCTCT	0.99
TTCAGAATCT	1.02
AGCGATGTTG	0.961
CCGGCATATG	1.06
GGACTCTCGA	1.01

Sequence	switch fluorescence ratio
GAGCTGATGT	1
AGCTGACTTG	1.02
CCCGTTAAGC	1.35
TCTGTATTC	0.991
AGACCGTAAT	1.31
GTGGGCAGTG	1.03
CGAACAGAGG	0.971
GTTCGAGGAC	1.02
GCTTTCTGT	0.993
ATAAATGAAC	1.03
AGGATCCAGG	1.14
AAAACAGATT	1.03
CGCCAATATA	1.33
CGTTGCATT	1.01
TCAAGGGGG	0.968
TATTAACCAT	1.02
CGGGCCGTGC	1.07
GAGGTCACGT	1.05
CGTGTTATGG	1.05
GGAGGAGCTC	1.05
ATTTTGCTTG	1.03
TCATGAGGCA	1.03
TCCATTAAGG	0.989
GCTGCAGGAT	0.996
CGATCTTTA	0.999
AATCTTGTA	0.962

Sequence	switch fluorescence ratio
TATTACTGGT	0.999
CCTGGCGAGG	1.03
TGCGGAAATG	1
TGAAAATCCT	1.14
TCGCCTACGA	1.05
AACCTTGCGG	1.11
GAGGTATAGT	1.01
CAAGAAAGCG	0.99
TAAGTTTCAT	1
CGCTGCTGCC	1.04
TAAATGAACA	1.03
ACAGTTTATC	1.03
GATTGTCACG	0.934
TAGGTTAGAG	0.958
TATCCCGCTC	1.43
GTTTAAGAGA	1.02
TTACTAGCTC	1.01
CGGCGGTAGG	1.01
ATGGTCTTAA	0.997
ATCTAGCTGG	1.01
CCTGGGAGGT	0.996
CTTCAGCACG	1.22
ATGGTATACG	1.09
ATTAAATCAA	1.01
TCAATGGATC	0.999
AATTTCTTTA	1.04

Sequence	switch fluorescence ratio
GGCTTCGAAC	1.03
ATTGTTCGTG	1.01
GATGTTCTTG	0.988
CACTTGTAGC	1.05
TAGTAAGAGC	0.967
AAGGTGTGCT	0.998
TGGACAGACC	1.09
ACGGTTCTGT	0.968
GGCGGAAGAG	1.04
ACTGTGAAGC	0.944
TTCAAGTGGA	1.01
TGATGGGTA	1.02
GAAAGACGTG	0.982
ACCCAGTTAG	1.07
TCGATTGTCG	1.02
GCCTTAGCTT	1.07
ATTACAAGTT	0.988
TGCAACTTT	1.11
CGAAGTTGAT	1.03
CCATGTAC	1.41
TTGTATCGCC	1.01
TAGGATTACA	0.966
TCTTCGTCGT	1.04
CCATGAATAT	1.02
TGCCATTATG	1.04
CTGCTGATGT	1.02

Sequence	switch fluorescence ratio
GGTGCACAGG	1.19
GGGTGTTATG	0.985
AAATTATCGC	1.06
CTGGGGTGCG	0.983
AAACTACCTG	1.03
TCCAAGTGGT	1.01
TAAGATTAGT	0.994
ACGCACGTAA	1.16
GTGTCCGAGA	1
GGTAGCGCAT	1.05
GAGCAGGAGA	0.997
GCGTAGCCA	0.984
TGCAGACAGC	1.01
ATTAATCTTA	0.962
TATTACATTC	1.02
AGGTGCCCCG	1
AAGTACGTCG	0.984
ACAAGTTTAC	0.967
TCGTCCTGTG	1.01
GCAGATAAGT	1.05
AGCGCCATGG	0.982
GCTATGTACC	1.13
TTTGGTAAAT	1.04
TATCACTTG	0.976
AGGTCCACTT	0.982
TCGATTGAGT	0.975

Sequence	switch fluorescence ratio
GCGCATTTTG	1.07
GCACCCCGGT	1.16
AGAAAATCCA	0.998
TTCTGGGTAG	0.998
GGGGGGTC	1.01
GTCTGGGATC	0.993
GTGATGTGAC	1.01
AAGAGTAGTA	1.01
TCCAATCGAA	1.04
TAATTTTACT	0.993
GGTGCGACGT	1.03
TGTAAG	0.982
AAGTTTATGT	1
CGAGTGCTTG	0.952
TTTCAACCAG	1.02
CGTGTCACCA	1
ATTACTGGTA	1
GTCTGGTTTA	0.982
TCCAGTTACG	0.983
TCTAACCGAG	1.15
GGTACTGAGG	1.08
GAGGGTACGT	1.03
CAGCTAAAAC	1.27
CAGGACTGCT	1
ATATCCAGGT	1.24
TCGTGAGACT	1.08

Sequence	switch fluorescence ratio
GACGAAGGTT	1.02
TTGGTTCAA	0.99
CTACCAGGGC	1.4
TTCTGACGCT	1.49
GCTGCTGAGC	1.01
AAGGTTTAGG	0.992
GGGGTGGTAC	1.02
CTTTCTTGGG	1.07
AGCGGGCTCG	1.04
GATAATGGGC	1.01
ATCCTCGAAG	1.01
CCGCCGAGTC	2.55
AAGTAGCCTT	1.05
AACATGTGCC	1.03
CACCTCGGCT	1.08
CGCAGGGAAC	1.5
TATTTCTATA	1
AAGTACCGAT	1.2
CCTCGTATAG	1.42
